# How the values were obtained:
# [1] = test system: fol3Δ::KanMX met13Δ::KanMX cells; test: Yeast growth complementation assay: human MTHFR variants in media lacking methionine with varying folinic acid; settings: for functional impact and folate responsiveness (growth in absence of methionine): over the range of folinic acid concentrations tested
# Procedure: (§1) FIG. 1. Effects of folinic acid supplementation on growth rate of fol3Δ::KanMX cells and cellular activity of human MTHFR. (a) Growth of fol3Δ::KanMX MET13 haploid yeast was measured in 96-well plates as described in Materials and Methods. Media was supplemented with folinic acid at the indicated concentrations. The curve labeled FOL3 (FOL3 MET13) was from growth in medium without folinic acid. (b) Growth of fol3Δ::KanMX met13Δ::KanMX haploid yeast transformed with phMTHFR in media lacking methionine and supplemented with folinic acid at the indicated concentrations. 3 independent transformants were tested at each folinic acid concentration to test reproducibility. The curve labeled met13Δ represented a single isolate of cells, transformed with empty vector, grown at 50 μg/ml folinic acid.
# FIG. 2. Functional impact and folate-remediability of nonsynonymous MTHFR population variants. (a) 6 MTHFR variants were tested for the ability to rescue fol3Δ::KanMX met13Δ::KanMX cells in media lacking methionine at 3 different folinic acid concentrations. […] The curve labeled Major corresponds to the most common MTHFR allele in the population. Each curve is from a pool of 3-6 independent transformants. (b) Schematic of the MTHFR protein (656 amino acids) divided into a N-terminal catalytic domain and a C-terminal regulatory domain of nearly equal size (35). Positions of all nonsynonymous changes are indicated. Benign changes are in green. Changes numbered 1 through 4 represent folate-remedial alleles indicated in increasing order of severity.
# Growth Conditions. Synthetic growth media lacking folate was minimal media (Sherman, 2002, Genetics & Molecular Biol., eds. Guthrie and Fink (Academic, New York), pp. 3-41) with Yeast Nitrogen Base without Vitamins (Obiogene), and all vitamins except folate added back individually. All fol3Δ::KanMX cells were supplemented with 50 μg/ml folinic acid (Sigma). For kinetic growth measurements, fol3Δ::KanMX met13Δ::KanMX cells were transformed with GAL1 promoter-driven MTHFR variants and grown to log phase in synthetic galactose medium (2% galactose, 0.1% glucose) supplemented with folinic acid (50 μg/ml) and methionine (20 μg/ml). Cells were washed 3 times and aliquoted into 96-well plates containing fresh galactose media with varying amounts of folinic acid, but lacking methionine. The volume per well was 200 μl with a starting cell density of OD595=0.01. Absorbance was tracked every 15-30 minutes for at least 60 hours in a Tecan GENios plate reader at 30° C. with no shaking. MET13 cells used in FIG. 1a were treated the same way except that all growth was in the absence of methionine.
# MTHFR-folate interaction in vivo. […] Folate auxotrophy (fol3) was introduced into a met13 strain, allowing titration of intracellular folate concentrations by varying folinic acid in the growth media. Folinic acid (5-formyl-tetrahydrofolate) can be metabolized in yeast to methenyl-tetrahydrofolate, which in turn can be converted to other folate coenzymes (Cherest et al. (2000) J. Biol. Chem. 275:14056-63). In this way, human MTHFR functionality (growth in the absence of methionine) was measured as a function of increasingly limiting cellular folate status.
# [2] = test system: fol3Δ::KanMX MET13 haploid yeast; test: Growth of folate-auxotroph yeast as a function of folinic acid supplementation
# Procedure: as §1
# Growth Conditions. Synthetic growth media lacking folate was minimal media (Sherman, 2002, Genetics & Molecular Biol., eds. Guthrie and Fink (Academic, New York), pp. 3-41) with Yeast Nitrogen Base without Vitamins (Obiogene), and all vitamins except folate added back individually. All fol3Δ::KanMX cells were supplemented with 50 μg/ml folinic acid (Sigma). […] Absorbance was tracked every 15-30 minutes for at least 60 hours in a Tecan GENios plate reader at 30° C. with no shaking. […]
# [3] = test system: cys4 sno1Δ sno2Δ sno3Δ snz1Δ snz2Δ snz3Δ yeast; test: Yeast complementation growth assay for CBS as a function of pyridoxine (vitamin B6); settings: pyridoxine supplementation varied
# Procedure: Yeast strains were engineered to assay CTH and CBS as a function of intracellular vitamin B6 (pyridoxine) concentration (FIG. 6). The S. cerevisiae orthologs for CTH and CBS are cys3 and cys4, respectively, whose defect results in cysteine auxotrophy. Enzymes were tested as a function of pyridoxine concentration in a manner similar to that described herein for MTHFR except that the strain background is defective for pyridoxine biosynthesis (sextuple-delete sno1Δ sno2Δ sno3Δ snz1Δ snz2Δ snz3Δ; Stolz et al., 2003. Tpn1p, the plasma membrane vitamin B6 transporter of Saccharomyces cerevisiae. J Biol Chem 278:18990-18996) as well as either a cys3 or cys4 defect.
molecule,measurement,setting,value
"R519C: human MTHFR variant, regulatory domain",functional impact and folate responsiveness (growth in absence of methionine),[1],benign
"R594Q: common human MTHFR variant, regulatory domain",functional impact and folate responsiveness (growth in absence of methionine),[1],benign
"A222V: human MTHFR variant, common polymorphism, catalytic domain",reduction in growth rate,[1]; 50 p g/ml folate supplementation,50%
same,functional impact and folate responsiveness (growth in absence of methionine),[1],folate-remedial behavior
"Nc1nc2c(c(=O)[nH]1)N(C=O)C(CNc1ccc(C(=O)N[C@@H](CCC(=O)O)C(=O)O)cc1)CN2 (some centres unmarked) [folinic acid, 5-formyl-tetrahydrofolate]",effect of folinic acid supplementation on growth,[2]; folinic acid above 50 μg/ml,did not confer any significant growth advantage
same,effect of folinic acid supplementation on growth,[2]; folinic acid below 50 μg/ml,growth clearly correlated with available folinic acid in the medium
same,effect of folinic acid supplementation on growth of cells expressing the major human allele,[1]; folinic acid above 50 p g/ml,did not confer a significant growth advantage
"1278T: homocystinuric allele of human CBS (protein, UniProt P35520 1-551, looked up, variant I278T) Cystathionine beta-synthase: MPSETPQAEVGPTGCPHRSGPHSAKGSLEKGSPEDKEAKEPLWIRPDAPSRCTWQLGRPASESPHHHTAPAKSPKILPDILKKIGDTPMVRINKIGKKFGLKCELLAKCEFFNAGGSVKDRISLRMIEDAERDGTLKPGDTIIEPTSGNTGIGLALAAAVRGYRCIIVMPEKMSSEKVDVLRALGAEIVRTPTNARFDSPESHVGVAWRLKNEIPNSHILDQYRNASNPLAHYDTTADEILQQCDGKLDMLVASVGTGGTITGIARKLKEKCPGCRITGVDPEGSILAEPEELNQTEQTTYEVEGIGYDFIPTVLDRTVVDKWFKSNDEEAFTFARMLIAQEGLLCGGSAGSTVAVAVKAAQELQEGQRCVVILPDSVRNYMTKFLSDRWMLQKGFLKEEDLTEKKPWWWHLRVQELGLSAPLTVLPTITCGHTIEILREKGFDQAPVVDEAGVILGMVTLGNMLSSLLAGKVQPSDQVGKVIYKQFKQIRLTDTLGRLSHILEMDHFALVVHEQIQYHSTGKSSQRQMVFGVVTAIDLLNFVAAQERDQK",sensitivity to limiting B6 levels (growth on solid media),[3],more sensitive than the wild-type enzyme to limiting B6 levels

# — patent US20090281061A1, “Impaired Alleles of Genes Involved in Metabolic Pathways and Methods for Detecting and Using the Same” (The Regents of the University of California, priority 2008, published 2009)
